Experimental data as given in a collection of fitness landscapes (doi:10.1016/j.celrep.2020.107928).
Whole data set: some 81,000 sequences, median “one-hybrid fitness for binding NBS DNA” near -0.1, cut for the highest 2% near 0.36. The list shows a part of the results.

B1: Caulobacter ParB omega fusion; a variant is named by its letters at X, in order, B8GW30 (parent)
chain: MESVVVGEPGMSEGRRGLGRGLSALLGEVDAAPAQAPGEQLGGSREAPIEILQRNPDQPRRTFREEDLEDLSNSIREKGVLQPILVRPSPDTAGEYQIVAGERAWRAAQRAGLKTVPIMVRELDDLAVLEIGIIENVQRADLNVLEEALSYKVLMEKFERTQENIAQTIGKSXSHVANXMRLLXLPDEVQSYLVSGELTAXHARAIAAAADPVALAKQIIEGGLSVRETEALARKAPNLSAGKSKGGRPPRVKDTDTQALESDLSSVLGLDVSIDHRGSTGTLTITYATLEQLDDLCNRLTRGI

Variants of: B1
Experiment: one-hybrid fitness for binding NBS DNA (the Noc-binding site; scaled: cognate 1, non-cognate 0); higher = stronger binding
Settings: with NBS DNA site
Method in brief: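 Fitness here means the log change in variant-to-wild-type read ratio between plasmids sequenced before and after selection. That scale was set so cognate equals 1 and non-cognate equals 0. The selection was a bacterial one-hybrid screen of Caulobacter ParB libraries, four specificity codons randomised, in E. coli USO carrying a HIS3 reporter with the site 19 bp from the promoter, grown 48 hours at 37°C on M9-minus-histidine with 0.1 mM IPTG and 5 mM 3-AT.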

| Variant | one-hybrid fitness for binding NBS DNA |
| --- | --- |
| ENYG | ≤ 0.2 |
| CLAF | ≤ 0.2 |
| RKVS | 0.426 |
| QCSK | ≤ 0.2 |
| HQQG | ≤ 0.2 |
| MAKR | 0.277 |
| VSQN | ≤ 0.2 |
| KCES | ≤ 0.2 |
| YMYG | ≤ 0.2 |
| WRAY | ≤ 0.2 |
| QNDF | ≤ 0.2 |
| NRDR | ≤ 0.2 |
| ADSM | ≤ 0.2 |
| KKDC | ≤ 0.2 |
| YPEN | ≤ 0.2 |
| PNHR | ≤ 0.2 |
| LWPC | ≤ 0.2 |
| PRVR | ≤ 0.2 |
| TTLH | ≤ 0.2 |
| DAFC | ≤ 0.2 |
| HLAI | ≤ 0.2 |
| DKNG | ≤ 0.2 |
| NVPK | ≤ 0.2 |
| KCFS | ≤ 0.2 |

| Variant | one-hybrid fitness for binding NBS DNA |
| --- | --- |
| VTHW | ≤ 0.2 |
| VYRA | ≤ 0.2 |
| AACD | ≤ 0.2 |
| KPTN | ≤ 0.2 |
| QYNC | ≤ 0.2 |
| TSAY | ≤ 0.2 |
| CLPI | ≤ 0.2 |
| EPSI | ≤ 0.2 |
| VLDF | ≤ 0.2 |
| PCQF | ≤ 0.2 |
| SYES | ≤ 0.2 |
| RTQL | ≤ 0.2 |
| DYVT | ≤ 0.2 |
| EHDR | ≤ 0.2 |
| PCSA | ≤ 0.2 |
| LALA | ≤ 0.2 |
| RPVV | ≤ 0.2 |
| SMQG | ≤ 0.2 |
| ILWG | ≤ 0.2 |
| PTPH | ≤ 0.2 |
| QSPA | ≤ 0.2 |
| NHRC | ≤ 0.2 |
| FTFC | ≤ 0.2 |
| VDRV | ≤ 0.2 |

| Variant | one-hybrid fitness for binding NBS DNA |
| --- | --- |
| TKMR | ≤ 0.2 |
| PQWL | ≤ 0.2 |
| MSDP | ≤ 0.2 |
| QEVR | ≤ 0.2 |
| KDLI | ≤ 0.2 |
| RVYD | ≤ 0.2 |
| SIQQ | ≤ 0.2 |
| PWEY | ≤ 0.2 |
| CIDV | ≤ 0.2 |
| PIDY | ≤ 0.2 |
| HPMC | ≤ 0.2 |
| RLLE | ≤ 0.2 |
| PMMG | ≤ 0.2 |
| RMVS | 0.29 |
| CLGG | ≤ 0.2 |
| PSPN | ≤ 0.2 |
| KVVL | ≤ 0.2 |
| QFLV | ≤ 0.2 |
| CKRC | ≤ 0.2 |
| ETMR | ≤ 0.2 |
| LTRS | ≤ 0.2 |
| PGYF | ≤ 0.2 |
| SIQW | ≤ 0.2 |
| HWLC | ≤ 0.2 |

| Variant | one-hybrid fitness for binding NBS DNA |
| --- | --- |
| DGKI | ≤ 0.2 |
| PPTE | ≤ 0.2 |
| WWIG | ≤ 0.2 |
| CSVS | ≤ 0.2 |
| ANGS | ≤ 0.2 |
| AVDY | ≤ 0.2 |
| TGEE | ≤ 0.2 |
| PGYD | ≤ 0.2 |
| FATC | ≤ 0.2 |
| FRPM | ≤ 0.2 |
| DVNS | ≤ 0.2 |
| WVRR | ≤ 0.2 |
| GAGP | ≤ 0.2 |
| PRRT | 0.231 |
| MGMC | ≤ 0.2 |
| LDMT | ≤ 0.2 |
| APPT | ≤ 0.2 |
| DHSC | ≤ 0.2 |
| RCNR | 0.586 |
| QKGM | ≤ 0.2 |
| TVHA | ≤ 0.2 |
| INHA | ≤ 0.2 |
| DRVM | ≤ 0.2 |
| SPSA | ≤ 0.2 |

| Variant | one-hybrid fitness for binding NBS DNA |
| --- | --- |
| TTFH | ≤ 0.2 |
| PKMG | ≤ 0.2 |
| HSRG | ≤ 0.2 |
| PQGC | ≤ 0.2 |
| GFSC | ≤ 0.2 |
| VEMC | ≤ 0.2 |
| LQLM | ≤ 0.2 |
| ANLT | ≤ 0.2 |
| MDMC | ≤ 0.2 |
| GSLP | ≤ 0.2 |
| QLMC | ≤ 0.2 |
| VHYA | ≤ 0.2 |
| TQPG | ≤ 0.2 |
| SCNL | ≤ 0.2 |
| PHHH | ≤ 0.2 |
| NWTY | ≤ 0.2 |
| CWPV | ≤ 0.2 |
| PRFA | ≤ 0.2 |
| DMKC | ≤ 0.2 |
| LQKN | ≤ 0.2 |
| YVRS | ≤ 0.2 |
| QAGH | ≤ 0.2 |
| TGTS | ≤ 0.2 |
| EWRR | ≤ 0.2 |

| Variant | one-hybrid fitness for binding NBS DNA |
| --- | --- |
| LSAT | ≤ 0.2 |
| HTTL | ≤ 0.2 |
| QTRS | 0.811 |
| RHGP | ≤ 0.2 |
| INCT | ≤ 0.2 |
| YGMC | ≤ 0.2 |
| GVEH | ≤ 0.2 |
| RFDD | ≤ 0.2 |
| SHPT | ≤ 0.2 |
| KGML | ≤ 0.2 |
| CKWR | ≤ 0.2 |
| TEPD | ≤ 0.2 |
| VYAC | ≤ 0.2 |
| ITTL | ≤ 0.2 |
| RLWS | 0.221 |
| MVIS | ≤ 0.2 |
| PPPQ | ≤ 0.2 |
| AKCR | ≤ 0.2 |
| GALA | ≤ 0.2 |
| PTKF | ≤ 0.2 |
| PGIV | ≤ 0.2 |
| QWRA | ≤ 0.2 |
| FLAM | ≤ 0.2 |
| CFQI | ≤ 0.2 |

| Variant | one-hybrid fitness for binding NBS DNA |
| --- | --- |
| SRDF | ≤ 0.2 |
| VWCR | ≤ 0.2 |
| AAHY | ≤ 0.2 |
| IRWS | ≤ 0.2 |
| WIIL | ≤ 0.2 |
| TSEK | ≤ 0.2 |
| SWWG | ≤ 0.2 |
| KNKG | ≤ 0.2 |
| CNHL | ≤ 0.2 |
| YLQI | ≤ 0.2 |
| RKMI | ≤ 0.2 |
| CDKV | ≤ 0.2 |
| CLKV | ≤ 0.2 |
| GLDF | ≤ 0.2 |
| QQTH | 0.264 |
| EESS | ≤ 0.2 |
| YKWG | ≤ 0.2 |
| NKCC | ≤ 0.2 |
| NYSC | ≤ 0.2 |
| TVKM | ≤ 0.2 |
| ECNT | ≤ 0.2 |
| NRPS | ≤ 0.2 |
| KADR | ≤ 0.2 |
| MLYT | ≤ 0.2 |

| Variant | one-hybrid fitness for binding NBS DNA |
| --- | --- |
| VVRR | ≤ 0.2 |
| LACT | ≤ 0.2 |
| CRTY | ≤ 0.2 |
| TPMM | ≤ 0.2 |
| PRIN | ≤ 0.2 |
| YSGW | ≤ 0.2 |
| FRES | ≤ 0.2 |
| WLIS | ≤ 0.2 |
| RLIN | ≤ 0.2 |
| QFGM | ≤ 0.2 |
| EVHG | ≤ 0.2 |
| DMEF | ≤ 0.2 |
| CYPV | ≤ 0.2 |
| ESQN | ≤ 0.2 |
| ANKE | ≤ 0.2 |
| WREF | ≤ 0.2 |
| RFPE | ≤ 0.2 |
| WDRY | ≤ 0.2 |
| MSWG | ≤ 0.2 |
| YAIG | ≤ 0.2 |
| RAGS | 0.466 |
| QATD | ≤ 0.2 |
| GAEL | ≤ 0.2 |
| DAFG | ≤ 0.2 |

| Variant | one-hybrid fitness for binding NBS DNA |
| --- | --- |
| TTKH | ≤ 0.2 |
| PYPC | ≤ 0.2 |
| PCEG | ≤ 0.2 |
| SHGF | ≤ 0.2 |
| RAAM | ≤ 0.2 |
| SSAP | ≤ 0.2 |
| KTTG | ≤ 0.2 |
| APFL | ≤ 0.2 |
| MRSE | ≤ 0.2 |
| KGED | ≤ 0.2 |
| TREN | ≤ 0.2 |
| VTCR | ≤ 0.2 |
| SALN | ≤ 0.2 |
| LTRR | 0.283 |
| QKLN | ≤ 0.2 |
| VDPS | ≤ 0.2 |
| LDSY | ≤ 0.2 |
| YGPG | ≤ 0.2 |
| RCAT | 0.515 |
| PCVG | ≤ 0.2 |
| KSYT | ≤ 0.2 |
| NNAD | ≤ 0.2 |
| RPTF | ≤ 0.2 |
| WRTG | ≤ 0.2 |

| Variant | one-hybrid fitness for binding NBS DNA |
| --- | --- |
| PPWC | ≤ 0.2 |
| ALPQ | ≤ 0.2 |
| TTGH | ≤ 0.2 |
| EISG | ≤ 0.2 |
| FAVG | ≤ 0.2 |
| PHTD | ≤ 0.2 |
| CQFS | ≤ 0.2 |
| SHGD | ≤ 0.2 |
| DRQA | ≤ 0.2 |
| SNQG | ≤ 0.2 |
| SAPL | ≤ 0.2 |
| RVSY | ≤ 0.2 |
| NCIR | ≤ 0.2 |
| QLDA | ≤ 0.2 |
| TNVT | ≤ 0.2 |
| HTTI | ≤ 0.2 |
| KYPT | ≤ 0.2 |
| SNYE | ≤ 0.2 |
| FLQL | ≤ 0.2 |
| PRRF | ≤ 0.2 |
| MAHR | ≤ 0.2 |
| KESG | ≤ 0.2 |
| VTLV | ≤ 0.2 |
| ARSG | ≤ 0.2 |

| Variant | one-hybrid fitness for binding NBS DNA |
| --- | --- |
| RMKD | ≤ 0.2 |
| VSYV | ≤ 0.2 |
| SISH | ≤ 0.2 |
| YRSG | ≤ 0.2 |
| SKRD | ≤ 0.2 |
| VHSP | ≤ 0.2 |
| GQAM | ≤ 0.2 |
| TCQV | ≤ 0.2 |
| RFPK | ≤ 0.2 |
| ENPV | ≤ 0.2 |
| VYCG | ≤ 0.2 |
| RVVH | ≤ 0.2 |
| WHFV | ≤ 0.2 |
| SPRE | ≤ 0.2 |
| TWRL | ≤ 0.2 |
| RRQC | 0.302 |
| PTNE | ≤ 0.2 |
| MIMW | ≤ 0.2 |
| AVGG | ≤ 0.2 |
| VCIR | ≤ 0.2 |
| QGGM | ≤ 0.2 |
| ECAF | ≤ 0.2 |
| AQNS | ≤ 0.2 |
| TRKK | 0.208 |

| Variant | one-hybrid fitness for binding NBS DNA |
| --- | --- |
| HVSL | ≤ 0.2 |
| AGQC | ≤ 0.2 |
| NLTW | ≤ 0.2 |
| WYSD | ≤ 0.2 |
| NSEG | ≤ 0.2 |
| RNWS | ≤ 0.2 |
| NIDS | ≤ 0.2 |
| VGNN | ≤ 0.2 |
| IFQM | ≤ 0.2 |
| PTQY | ≤ 0.2 |
| KTNM | ≤ 0.2 |
| CRSR | ≤ 0.2 |
| PGQS | ≤ 0.2 |
| GMHE | ≤ 0.2 |
| NRHK | ≤ 0.2 |
| GLVM | ≤ 0.2 |
| RDNH | ≤ 0.2 |
| APNE | ≤ 0.2 |
| TATW | ≤ 0.2 |
| KYYR | ≤ 0.2 |
| RIHT | 0.532 |
| HWQL | ≤ 0.2 |
| SVSW | ≤ 0.2 |
| EFEL | ≤ 0.2 |

| Variant | one-hybrid fitness for binding NBS DNA |
| --- | --- |
| YFMC | ≤ 0.2 |
| WQDS | ≤ 0.2 |
| SGCF | ≤ 0.2 |
| RDDN | ≤ 0.2 |
| MRIG | ≤ 0.2 |
| MAPD | ≤ 0.2 |
| DEES | ≤ 0.2 |
| VTLW | ≤ 0.2 |
| MSHC | 0.26 |
| CIWV | ≤ 0.2 |
| RRGQ | 0.239 |
| FKLA | ≤ 0.2 |
| QSAY | ≤ 0.2 |
| LGST | ≤ 0.2 |
| WCWS | ≤ 0.2 |
| SQTI | 0.211 |
| QKIL | ≤ 0.2 |
| VNQA | ≤ 0.2 |
